Read counts are not given, so values of variants with three or more changes are uncertain.

Among the data in the RNAGym collection of RNA variant scans (doi:10.1093/nar/gkz1192) are self-cleavage values, retold here.

B1: CPEB3 Ribozyme (parent)
chain: UAACAGGGGGCCACAGCAGAAGCGUUCACGUCGCAGCCCCUGUCAGAUUCUGGUGAAUCUGCGAAUUCUGCUGUAUAUCUC

The data set covers variants of B1. In words: self-cleavage, relative activity (ratio to wild type); higher = more cleavage; in vitro, sequencing. Summed up: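 For each CPEB3 ribozyme variant, relative activity is its cleaved/total read fraction divided by the unmutated ribozyme's. Barcoded error-prone PCR libraries were transcribed by T7 RNA polymerase (5 hours, 37°C) and held in DNase I for 15 min before an EDTA stop, with cleavage occurring throughout. Template-switching reverse transcription and Illumina sequencing were used to read the RNAs. A 5-read minimum applied, and results are the mean of three batches.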
Take C29U U41C C71G U72A U80C: the self-cleavage is 0.12.

Take U31A U67C U78C: the self-cleavage is 0.11.

In the case of C29U U54A A64G U78C, the self-cleavage worked out at 0.31.

Consider U31A C40U U48C U54C C62A, for which the self-cleavage was determined as 0.06.

As to U31A A35G U54G U67C, the self-cleavage was determined as 0.57.

As to U31A U43C U58A U69A U76C, the self-cleavage amounted to 0.1.

Turning to G30A A45G U51A, the self-cleavage amounted to 0.17.

Take G30C U41A U78C U80C: the self-cleavage turned out to be 0.23.

With U31A A35G U78A, the self-cleavage turned out to be 1.24.

With G30U U43C A47G, the self-cleavage stood at 0.14.

In the case of G30U U41C U54G A64U, the self-cleavage was found to be 0.14.

As for U31A U49C U66C A75U U78C, the self-cleavage was determined as 0.08.

For the variant G30U U69C U80C, the self-cleavage came out at 0.07.

Regarding G30U A35U U60A U72C, the self-cleavage was 0.06.

As to G30C U66C C79U, the self-cleavage amounted to 0.15.

Regarding U31A A35C U43C, the self-cleavage was 0.14.

With C29U U54C A57G, the self-cleavage turned out to be 0.39.

Turning to G30A A35U U74A, the self-cleavage was found to be 0.16.

As for U31A C39A U41C U49C U54A, the self-cleavage turned out to be 0.17.

Turning to G30C A35G A47G U51C C62U, the self-cleavage stood at 0.08.

As for U31A A47G U67C, the self-cleavage was 0.24.

With G30C U51C U69A, the self-cleavage worked out at 0.17.

For the variant C29U U66C U80C, the self-cleavage stood at 0.43.

Consider G30U U41C U43C A77U, for which the self-cleavage is 0.19.

As to G30A U41C A57U U72A A75G, the self-cleavage amounted to 0.06.

For the variant U31A A64U U67C U72A U80A, the self-cleavage came to 0.22.

With G30U U41C U54G A64U A77U, the self-cleavage worked out at 0.07.

As to U31A C68U U72C, the self-cleavage worked out at 0.46.

G30A U31C A64U: the self-cleavage stood at 0.17.

G30C U41A U51A A65G U69A: the self-cleavage stood at 0.17.

With G30U U66C U80C C81A, the self-cleavage was found to be 0.11.

In the case of G30A A45U U67C U72C, the self-cleavage stood at 0.07.

Take U31A A35U A45G U69A U72C: the self-cleavage was determined as 0.12.

Regarding G30A U76A A77G, the self-cleavage is 0.16.

In the case of U31A U60A U69C, the self-cleavage is 0.21.

Regarding U31A U60C U72A, the self-cleavage stood at 0.19.

With U31A U66C U67C U80C, the self-cleavage came out at 0.15.

On to G30A U49C A65G U69C, for which the self-cleavage turned out to be 0.05.

For U31A U54A A57G C68U U74C A75U, the self-cleavage amounted to 0.46.

Take U31A U41C U48C U60A U76C: the self-cleavage is 0.12.

Regarding U31A A57G A65U U69C, the self-cleavage is 0.16.

C29U U41A U43G U67C U72A C79U: the self-cleavage is 0.04.

For the variant C29U U48C U51C G70A, the self-cleavage was found to be 0.1.

On to G30A C62A U69C U78C, for which the self-cleavage amounted to 0.12.

G30A A57G U80C: the self-cleavage came out at 0.68.

For C29U U41C A47G U58C A75G, the self-cleavage stood at 0.18.

Regarding C29U U67A U69A, the self-cleavage is 0.06.

Take U31A U58C U76C U78C: the self-cleavage is 0.23.

With C29U U67C U69A, the self-cleavage is 0.14.

On to C29U U43A A64G U76G, for which the self-cleavage was 0.31.

Consider G30U A56G U60C, for which the self-cleavage is 0.54.

As to C29U U41C U67C U72C, the self-cleavage was 0.11.

Turning to U31A U43C U78A, the self-cleavage stood at 0.33.

For U31A U43C U78C, the self-cleavage stood at 0.17.

As for G30A G55A A65C U72C, the self-cleavage stood at 0.14.

Regarding G30C U51C A64G U74C, the self-cleavage came to 0.12.

As to U31A U41C U43C A56G, the self-cleavage was found to be 0.16.

Take G30A A35U U41C U51C A57G: the self-cleavage was determined as 0.12.

For the variant U31A A35U U51A U69G, the self-cleavage amounted to 0.09.

For the variant U31A U41A U43A U74A, the self-cleavage came to 0.17.

As to U31A A57G A65G, the self-cleavage was 0.41.

G30A G33A A45G G63A: the self-cleavage came out at 0.08.

With G30A U69C U72A U80G, the self-cleavage is 0.08.

In the case of G30C U41A A45U, the self-cleavage was found to be 0.1.

U31A U43C U74C U78A: the self-cleavage amounted to 0.37.

In the case of G30C U51A U80C, the self-cleavage amounted to 0.12.

Take G30A C38A U41C: the self-cleavage amounted to 0.35.

On to U31A U41C U60C A64G, for which the self-cleavage came out at 0.29.

As for G30A U69C U72C, the self-cleavage came to 0.32.

In the case of U31A U43C A75G, the self-cleavage was determined as 0.13.

With U31A U60C U76C, the self-cleavage was found to be 0.22.

For the variant G30U G61A A77U, the self-cleavage came to 0.08.

With U31A A64G U74A, the self-cleavage came out at 0.54.

Regarding G30A C40A G63C U69C, the self-cleavage came out at 0.11.

Take G30A A45U U54C U58C: the self-cleavage is 0.13.

Take U31A U49A U58A: the self-cleavage amounted to 0.15.

On to U31A A47U U54C A56G U60A U78A, for which the self-cleavage stood at 0.04.

Take U31A A47G C62G U80C: the self-cleavage came out at 0.22.

For the variant G30U A35U U54C G63A, the self-cleavage is 0.07.

On to G30U U41C U72A U78A, for which the self-cleavage amounted to 0.11.

For U31A A35G C38U U58G C68U U74A A75G, the self-cleavage amounted to 0.38.

Regarding G30C G42C U49A G52U C59A, the self-cleavage was 0.09.

With U31A U48C A57G, the self-cleavage worked out at 0.4.

Turning to C29U U51A G53C, the self-cleavage stood at 0.62.
